Experimental findings from PMC7819943, “Rice protein-binding microarrays: a tool to detect cis-acting elements near promoter regions in rice” are described below.

The list shows a part of the results.

For the test, the target named is T1, OsWOX13 (Oryza sativa, UniProt Q5QMM3 1-267).
T1 sequence: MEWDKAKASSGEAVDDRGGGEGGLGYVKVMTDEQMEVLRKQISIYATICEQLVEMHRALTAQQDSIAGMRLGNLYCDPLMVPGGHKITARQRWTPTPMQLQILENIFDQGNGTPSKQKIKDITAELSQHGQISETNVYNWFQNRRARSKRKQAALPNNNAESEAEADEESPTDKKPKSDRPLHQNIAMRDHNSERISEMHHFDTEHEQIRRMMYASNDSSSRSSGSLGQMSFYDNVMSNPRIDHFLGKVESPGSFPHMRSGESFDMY
As to the kind of experiment: protein-binding microarray (RPBM); PBS, 2% BSA, 51.3 ng/ul salmon testes DNA, 50 uM zinc acetate, 200 nM TF, 25 C, 1 h; high values mean tight binding. The note with it: protein: recombinant; tags: N-terminal polyhistidine and DsRed monomer fusion (pET32a); label: CyDye5-dUTP incorporated in the synthesized complementary strand; 3' TTTTT single-stranded linker to array surface; dsDNA, one strand shown. In a few lines: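 Ni–NTA purification followed expression in E. coli BL21-CodonPlus of transcription factors fused N-terminally to a polyhistidine tag and DsRed. At 200 nM in PBS with 2% BSA, salmon testes DNA and 50 µM zinc acetate, the protein was incubated for 1 h at 25 °C with a custom Agilent array that had been primer-extended with Cy5-dUTP and blocked with 2% BSA. After washing, the array was read on an Axon 4000B scanner. The binding signal is per-feature fluorescence intensity in arbitrary units.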
Turning to “GATGTTGATTGTTGGTGTGTAGAATAATGTCTGATATGAACGGAGTCACCTAGTGCAG”, the binding signal is 30100 fluorescence intensity (a.u.).

For “GTCGATTGTCTGGATTTGTGATGTGATAGAACGTCGGTATCGGAGTCACCTAGTGCAG”, the binding signal is 11100 fluorescence intensity (a.u.).

With “GACAATTGACACGATCTATCATCTATGGAGTTGGAGAAGCCGGAGTCACCTAGTGCAG”, the binding signal was 24800 fluorescence intensity (a.u.).

As to “GACATGTAATTTCTTTTGACTATGAATCCTGGAGCCAAAACGGAGTCACCTAGTGCAG”, the binding signal was 5070 fluorescence intensity (a.u.).

Take “CTTCTAATTTTGTTAATTGGGAAGACATCATAGAGTGGAACGGAGTCACCTAGTGCAG”: the binding signal was 65400 fluorescence intensity (a.u.).

As to “AACAAACAGATTATGTGTTTTCAGTTCTTAAGTTTAACAACGGAGTCACCTAGTGCAG”, the binding signal was 5240 fluorescence intensity (a.u.).

In the case of “AATCCAATCACAAGCAGGCTACTATGCATCAAGAGAAAGACGGAGTCACCTAGTGCAG”, the binding signal is 6980 fluorescence intensity (a.u.).

For “GTTTCAAATTATGAAATCTTAATGTTCCCTGTGTGAGAGTCGGAGTCACCTAGTGCAG”, the binding signal was 6340 fluorescence intensity (a.u.).

For “AAACCCTTAATTGCTCATGATTTTGCCATTATAATATAGGCGGAGTCACCTAGTGCAG”, the binding signal was 44600 fluorescence intensity (a.u.).

As to “ACTAAATAGATGAATTCATAAATATGAAAATTTTCCGACCCGGAGTCACCTAGTGCAG”, the binding signal was 39800 fluorescence intensity (a.u.).

For “GTCTAATTTAATGTTCAACCGATCGAGGCACACACACACTCGGAGTCACCTAGTGCAG”, the binding signal was 11200 fluorescence intensity (a.u.).

As for “TCTCATCCTAATTAAATTTACCATTTAACACTATGGGTTACGGAGTCACCTAGTGCAG”, the binding signal was 19700 fluorescence intensity (a.u.).

Turning to “GGGTCAGTTGATTGGTCGAGTTGAGGATGGCGGTGTTATACGGAGTCACCTAGTGCAG”, the binding signal was 7070 fluorescence intensity (a.u.).

Consider “TTTGGGAATTAATTGGGAGACTTCTGCTGTTCTTGGTTGCCGGAGTCACCTAGTGCAG”, for which the binding signal is 27000 fluorescence intensity (a.u.).

For the sequence “CTTTACAATTAATACATGTTCCACTTGTCTCTCTCACAGACGGAGTCACCTAGTGCAG”, the binding signal was 4970 fluorescence intensity (a.u.).

Take “GATTCAAATTTGAATTTGAATTATATCTGATTCAAATTTGCGGAGTCACCTAGTGCAG”: the binding signal was 3940 fluorescence intensity (a.u.).

As for “ACTTGCCTAAATTAGAGAGAAATCACGATGACCAAAACGGCGGAGTCACCTAGTGCAG”, the binding signal is 4790 fluorescence intensity (a.u.).

In the case of “CTCATGATTATTAGCTACTCCACAGCGTTAGCTTCGTCCACGGAGTCACCTAGTGCAG”, the binding signal is 14700 fluorescence intensity (a.u.).

In the case of “AAATAAATCAACTTCTACCTTGTTGCCTACCCTTATTCGCCGGAGTCACCTAGTGCAG”, the binding signal was 3190 fluorescence intensity (a.u.).

Turning to “ATCTTTGATTTGTCCTAAATTTGTGATGGGGATGTCACCGCGGAGTCACCTAGTGCAG”, the binding signal is 50700 fluorescence intensity (a.u.).

Consider “TAGAATTAATTAAAATTCGAAAAGAAATTGACAAACACTACGGAGTCACCTAGTGCAG”, for which the binding signal is 21700 fluorescence intensity (a.u.).

On to “GTTACCTATTAATTAATAGGAAGATGATATAAATAGTTTACGGAGTCACCTAGTGCAG”, for which the binding signal is 19400 fluorescence intensity (a.u.).

On to “ATCCTTAATTAGTACGGAGTATGTTCTTATTATTCTAATTCGGAGTCACCTAGTGCAG”, for which the binding signal was 14600 fluorescence intensity (a.u.).

Take “TTGTTAAAATTGTACAATTTTATTATAATGACCAAAATACCGGAGTCACCTAGTGCAG”: the binding signal was 3870 fluorescence intensity (a.u.).

As for “ACTTGATCATACGAGTCAGTGTAGGATTTGATTGGTTGCACGGAGTCACCTAGTGCAG”, the binding signal was 9660 fluorescence intensity (a.u.).

With “GTCTCGATATAATTATGAATTTTGAAATATATAAACCCATCGGAGTCACCTAGTGCAG”, the binding signal is 8250 fluorescence intensity (a.u.).

For the sequence “GTAAATTTTGAACAGTAAATGATACTGTTGGATTATTCTCCGGAGTCACCTAGTGCAG”, the binding signal is 7930 fluorescence intensity (a.u.).

With “GTTGGTGTCAATTGATTTCCAAGTATAAACTTATAACTTTCGGAGTCACCTAGTGCAG”, the binding signal was 4100 fluorescence intensity (a.u.).

Turning to “CAGAAAATGAAAATAAATATCCTAATAGTGTGAGCAGCTGCGGAGTCACCTAGTGCAG”, the binding signal was 3270 fluorescence intensity (a.u.).

For the sequence “CTATCAATTATACGTGACGAAACATTGAGATATATGTATTCGGAGTCACCTAGTGCAG”, the binding signal was 7060 fluorescence intensity (a.u.).

On to “ATAAAATTTTGGTTAGTGCGAACTTGTCTTCTGCTTATGTCGGAGTCACCTAGTGCAG”, for which the binding signal is 3190 fluorescence intensity (a.u.).

Consider “AGTATATTGAAGGTAATCTGATTTGTGGATCGATAATAAGCGGAGTCACCTAGTGCAG”, for which the binding signal is 6020 fluorescence intensity (a.u.).

As to “ATCCTAGATAATTAGGTGTAACATCCTAGAACCAAATCTACGGAGTCACCTAGTGCAG”, the binding signal was 6320 fluorescence intensity (a.u.).

Regarding “AAGATTGAAGGCAACCAAACCAACAAGGATGGATGCTTCTCGGAGTCACCTAGTGCAG”, the binding signal was 16500 fluorescence intensity (a.u.).

For “GAAGCCTCAATTATTGCACCAACGATAAGTTCACCTACTTCGGAGTCACCTAGTGCAG”, the binding signal is 3580 fluorescence intensity (a.u.).

As to “CATAAACTGATCTCATTTGGTTTTGAGTAAGGCCTGGTTTCGGAGTCACCTAGTGCAG”, the binding signal was 9070 fluorescence intensity (a.u.).

Take “ATCCAAATTTCCCGTTTATGTAGCAATCATGAAGAAGAGCCGGAGTCACCTAGTGCAG”: the binding signal was 6230 fluorescence intensity (a.u.).

With “GAAGGGTTAATTGGATTCATGCCATTATAAATTTGTTCGTCGGAGTCACCTAGTGCAG”, the binding signal was 25900 fluorescence intensity (a.u.).

Regarding “CTAATACCAATCAAATTAAGCAGCGCAATATCATCGGCGCCGGAGTCACCTAGTGCAG”, the binding signal was 9270 fluorescence intensity (a.u.).

In the case of “CCGTTGATGGAGATGGCTGTGAGCTCGCCGACGAATTAAGCGGAGTCACCTAGTGCAG”, the binding signal is 5720 fluorescence intensity (a.u.).

With “CTCAAATAAATTGGAAAATCCCTCCTTTGCCAAATTTCCTCGGAGTCACCTAGTGCAG”, the binding signal was 23000 fluorescence intensity (a.u.).

As for “AAGACCTATCAATCTGTCAGCTACTACGGTTGTGAGTGAACGGAGTCACCTAGTGCAG”, the binding signal is 5840 fluorescence intensity (a.u.).
